Results published in paper PMC4336329 (PLoS ONE, 2015).
The campaign covered roughly 310,000 compounds. About 2,200 (0.71%) showed an effect of 50% or more. The effect is printed as a negative number. Some of the results follow.

Target: human ether-à-go-go-related gene (hERG) potassium channel (human, UniProt Q12809)
Experiment: primary screen, population patch clamp on CHO cells stably expressing hERG

Sequence of human ether-à-go-go-related gene (hERG) potassium channel (Q12809 whole entry, looked up): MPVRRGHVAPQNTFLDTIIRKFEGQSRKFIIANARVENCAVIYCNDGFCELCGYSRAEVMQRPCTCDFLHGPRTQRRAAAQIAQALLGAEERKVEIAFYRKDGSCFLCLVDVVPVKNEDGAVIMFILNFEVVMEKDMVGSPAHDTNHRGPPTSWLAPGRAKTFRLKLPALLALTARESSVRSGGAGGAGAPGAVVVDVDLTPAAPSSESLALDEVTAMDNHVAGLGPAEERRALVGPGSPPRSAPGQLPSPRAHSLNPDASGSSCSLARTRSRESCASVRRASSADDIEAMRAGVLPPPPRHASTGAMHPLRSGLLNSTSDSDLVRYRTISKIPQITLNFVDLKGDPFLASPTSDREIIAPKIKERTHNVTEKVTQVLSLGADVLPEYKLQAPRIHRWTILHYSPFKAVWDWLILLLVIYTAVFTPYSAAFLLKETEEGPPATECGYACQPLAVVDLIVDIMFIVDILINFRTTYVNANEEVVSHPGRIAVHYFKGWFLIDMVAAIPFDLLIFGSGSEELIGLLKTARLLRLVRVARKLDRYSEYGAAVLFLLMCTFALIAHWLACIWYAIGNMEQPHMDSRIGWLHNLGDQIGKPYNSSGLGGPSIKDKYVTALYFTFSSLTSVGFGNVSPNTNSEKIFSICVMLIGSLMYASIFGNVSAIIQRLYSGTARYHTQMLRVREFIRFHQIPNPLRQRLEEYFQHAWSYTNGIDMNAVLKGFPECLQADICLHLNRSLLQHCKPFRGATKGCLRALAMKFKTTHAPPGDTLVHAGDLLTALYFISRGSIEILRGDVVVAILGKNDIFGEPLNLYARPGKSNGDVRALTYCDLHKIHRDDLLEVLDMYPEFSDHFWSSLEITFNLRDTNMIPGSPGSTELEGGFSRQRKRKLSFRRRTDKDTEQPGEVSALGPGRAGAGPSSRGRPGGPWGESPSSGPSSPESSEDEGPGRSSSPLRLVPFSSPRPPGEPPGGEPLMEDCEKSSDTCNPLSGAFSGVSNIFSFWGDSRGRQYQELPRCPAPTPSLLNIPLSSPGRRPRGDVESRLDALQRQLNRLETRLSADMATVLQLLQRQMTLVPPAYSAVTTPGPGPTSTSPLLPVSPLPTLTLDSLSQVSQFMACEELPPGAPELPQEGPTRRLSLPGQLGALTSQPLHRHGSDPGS

Row | SMILES | hERG current change (%, negative = inhibition) at 1uM
1 | O=c1cc(-c2ccncc2)oc2c1ccc1ccccc12 | 8.9%
2 | Cc1ccc(OCC(=O)NC(=S)Nc2ccc3c4c(cccc24)CC3)cc1 | 10.4%
3 | COc1ccc(CNC(=O)Cn2ccc(N)nc2=O)cc1 | 16%
4 | CCC(=O)Nc1ccc2c(c1)nc(CCN1CCC(C)CC1)n2C | 12.3%
5 | CCN(CC)S(=O)(=O)c1ccc(NC2c3ccccc3C(=O)N2CCN2CCOCC2)cc1 (stereo not drawn) | -15.5%
6 | CCc1ccc(NC(=O)COC(=O)CN2C(=O)COc3ccccc32)cc1 | -0.617%
7 | COC(=O)C1=C(C)N(c2cccc(C(C)=O)c2)C(=O)C1 | 12.8%
8 | O=C(CCCNS(=O)(=O)c1cccc2nsnc12)NCc1ccc(Cl)cc1 | -4.65%
9 | CC(C)OC(=O)CSc1nnc(C2CCCCC2)n1N | 8.17%
10 | CCOc1ccc(N=C2NC(=O)/C(=C/C(=O)OC)S2)cc1 | 7.75%
11 | COc1ccc(/C=N/NC(=O)CNc2c(Br)cc(C)cc2Br)c(C(=O)O)c1OC | 10.2%
12 | Cc1cc2c(cc1S(=O)(=O)CCC(=O)NCCc1ccccc1)OCC(=O)N2 | -45.7%
13 | COc1ccc(N=Cc2ccc[nH]2)cc1 | 7.83%
14 | COc1cccc(C(=O)Nc2cccc(OC(C)=O)c2)c1 | 6.53%
15 | CC(C)[C@H](NC(=O)NCCc1ccc(F)cc1)C(=O)O | 4%
16 | COc1ccc(C(=O)NCC(=O)OCC(=O)Nc2cc([N+](=O)[O-])ccc2F)cc1 | 5.81%
17 | Cc1ccc(C(=O)CSc2nnc(C)s2)cc1 | 12.3%
18 | COCCCn1c(SCc2ccccc2)nc2cc(OC)c(OC)cc2c1=N | 9.67%
19 | Nc1nc(CSC(=S)N2CCOCC2)nc(Nc2ccccc2)n1 | 5.37%
20 | C/C(=N\NC(=O)c1cc(Br)ccc1O)c1ccccn1 | 11.2%
21 | CC1CC(c2ccccc2)NS(=O)(=O)O1 (stereo not drawn) | 4.31%
22 | CCCNC(=O)C(Cc1ccc(I)cc1)NC(=O)C1CC1 (stereo not drawn) | 0.0046%
23 | O=C(O)CCc1nc2ccccc2c(=O)[nH]1 | 7.81%
24 | CCOc1ccc(C(=O)NC(C(=O)NCc2ccccn2)C(C)C)cc1 (stereo not drawn) | 11.2%

Row | SMILES | hERG current change (%, negative = inhibition) at 1uM
25 | S=c1[nH]nc(COc2ccccc2)n1Cc1ccccc1 | 11.8%
26 | COc1ccc(N/C(=N/c2nc(C)cc(C)n2)NC(=O)c2ccccc2)cc1 | 14.8%
27 | [O-][n+]1onc2c1CCC1N(O)CCC21O (stereo not drawn) | 8.35%
28 | CCO[C@@H]1OC(C(=O)N2CCCCCCC2)=C[C@H](c2cn(C(C)=O)c3ccccc23)[C@H]1CCCO | -3.87%
29 | COCC(C)NC(=O)c1cccc([N+](=O)[O-])c1 (stereo not drawn) | 16.2%
30 | Cc1ccc(N2CC(C(=O)OCC(=O)C(C)(C)C)CC2=O)cc1 (stereo not drawn) | 4.44%
31 | CC(Cl)C(=O)Nc1ncc(C(F)(F)F)cc1Cl (stereo not drawn) | -4.71%
32 | O=C1CC(c2ccco2)=Nc2ccccc2N1 | 10.1%
33 | Cc1cc(C)n(/N=C\c2c(O)ccc3ccccc23)c(=O)c1C(N)=O | 2.39%
34 | CN(Cc1ccccc1F)C(=O)c1ccc(Oc2ccccc2)cc1 | -3.7%
35 | O=C(c1ccc(CS(=O)c2cccc(Cl)c2)o1)N1CCN(C2CCCCC2)CC1 (stereo not drawn) | 0.866%
36 | CS(=O)(=O)c1ccc2nnn(OCC(=O)Nc3cccc(C#N)c3)c2c1 | 4.28%
37 | O=C(NC(=S)Nc1ccccn1)c1cncc(Br)c1 | 11.4%
38 | CC(C)CC(=O)Nc1ncc([N+](=O)[O-])s1 | 12.7%
39 | COc1ccc(NC(=O)Cn2c(CCC(=O)O)ccc2-c2ccccc2)cc1 | 13.2%
40 | O=C(OCc1cnc(Cl)s1)c1cccc(Cl)c1Cl | 12.7%
41 | CC(C)CC(C)NC(=O)c1ccc(C(F)(F)F)cc1 (stereo not drawn) | 10.6%
42 | Cc1cc2oc(=O)cc(CN3CCC(C)CC3)c2cc1Cl | 5.54%
43 | Cc1ccc(-c2nnn(CC(=O)N(CC3CCCO3)C(C(=O)NC(C)(C)C)c3ccc(F)cc3)n2)o1 (stereo not drawn) | 19.4%
44 | COc1ccc(/C=C/C(=O)NC(=S)N2CCN(C)CC2)cc1 | 11.4%
45 | O=C(O)COc1ccc(F)cc1Br | 8.76%
46 | COc1ccccc1/C=C/C=C(\C#N)C(=O)NC(C)c1ccccc1 (stereo not drawn) | 13.1%
47 | COc1ccccc1CNC(=O)c1ccc(S(=O)(=O)N2CCCC2)cc1 | 6.7%
48 | COC(=O)c1ccc(OCC2c3cc(OC)c(OC)cc3CCN2C(C)=O)cc1 (stereo not drawn) | 10.9%

Row | SMILES | hERG current change (%, negative = inhibition) at 1uM
49 | CCc1ccc(-c2ccc(C(=O)O)c(C)n2)cc1 | -0.621%
50 | Cc1cccc(NC(=O)Cc2c(F)cccc2Cl)n1 | 10.7%
51 | CCN=c1sc(C(=O)OC)cc(=O)n1CC | 21.5%
52 | O=C(CCSCc1ccc(Cl)cc1)NC1CCCC1 | 7.09%
53 | O=c1[nH]nc(CNc2ccc(O)cc2)c2ccccc12 | 0.201%
54 | CCOc1ccccc1N(CC(=O)Nc1ccccc1F)S(=O)(=O)c1ccccc1 | 6.43%
55 | CCOc1ccc(S(=O)(=O)n2cc(F)c(=O)[nH]c2=O)cc1 | 18.8%
56 | CC(C)C(=O)Nc1oc(-c2ccccc2)cc1C#N | 13%
57 | O=C1CCc2cc(S(=O)(=O)NC(C(=O)N3CCN(c4ccccn4)CC3)c3ccccc3)ccc2N1 (stereo not drawn) | 8.66%
58 | O=C1Nc2ccccc2C(O)(C(=O)NCc2ccco2)N1c1ccccc1 (stereo not drawn) | 12.5%
59 | Cc1nc2cc(-c3ccc(F)cc3)[nH]n2c(=O)c1C | 5.7%
60 | Cc1cccc(NS(=O)(=O)c2ccc(NS(=O)(=O)c3cccs3)cc2)c1 | 13%
61 | O=C(O)CCN=C1CCc2ccccc2N1 | 17.5%
62 | CCC(C)C(NC(N)=O)C(=O)Nc1ccc(C)c(Cl)c1 (stereo not drawn) | 15.6%
63 | Nc1nc(-c2cc(-c3ccccc3)no2)cs1 | 9.47%
64 | O=C(Nc1ccccc1C(=O)N1CCOCC1)c1cc2ccccc2o1 | 13.7%
65 | CCOc1ccc(CC(=O)NNC(=S)Nc2ccc(OC)c(OC)c2)cc1 | 2.85%
66 | COc1ccc(C(=O)Nc2ccc(CN3CCOCC3)cc2)cc1 | 8.74%
67 | Cc1cc(C)n(-c2nnc(C)n2NS(=O)(=O)c2ccc(F)cc2)n1 | 9.16%
68 | CC(=O)Nc1ccc(NC(=O)CSc2nnc(NC(=O)c3ccco3)s2)cc1 | -1.71%
69 | CCc1nc(Nc2ccc(N3CCN(C(C)=O)CC3)cc2)c2oc3ccccc3c2n1.Cl | -7.41%
70 | CCOc1cc(/C=C2\SC(=S)N(Nc3ccccc3)C2=O)ccc1O | 2.8%
71 | COc1ccc(CNCCC(c2ccc(OC(C)C)cc2)c2ccccc2OC)cc1OC (stereo not drawn) | -9.62%
72 | COc1cc(OC)cc(-c2c(-c3cccs3)c3cc(-c4ccc(OC)nc4)ccc3n2C)c1 | 2.9%

Row | SMILES | hERG current change (%, negative = inhibition) at 1uM
73 | Cc1c(NC(=O)COc2cccc(Cl)c2Cl)c(=O)n(-c2ccccc2)n1C | -8.72%
74 | C=CCn1c(COc2ccc(F)cc2)nnc1SCC(=O)Nc1cccc(S(N)(=O)=O)c1 | 11.5%
75 | CCCNc1nc(Nc2ccc(C)cc2)nc(N2CCCC2)n1 | 5.61%
76 | CCc1nnc(NC(=O)c2ccc(S(=O)(=O)N3CCCC3)cc2)s1 | 11.6%
77 | COc1ccc(S(=O)(=O)N2CCCN(CC(=O)Nc3ccccc3F)CC2)cc1 | -4.74%
78 | COC(=O)c1ccc(CSc2ccc3nnc(-c4ccccc4)n3n2)o1 | -9.01%
79 | CC(C)CC(=O)N1CCN(Cc2ccc(Cl)cc2)CC1 | -0.383%
80 | O=C(C1CCN(C2CCN(Cc3ccc4c(c3)CCO4)CC2)CC1)N1CCCC1 | -13.3%
81 | CCN(c1ccc(F)cc1)S(=O)(=O)c1cccc2nsnc12 | 14.5%
82 | CC1(C)CC(C)(c2ccc(O)cc2O)N(c2ccc3ccccc3c2)C(=S)N1 (stereo not drawn) | 9.77%
83 | CN1CCN(C(=O)c2ccccc2NC(=O)C(C)(C)C)CC1 | 11.9%
84 | CCCCC(=O)Nc1ccc(C(=O)Nc2cccnc2)cc1 | 0.268%
85 | C=CCN1C(=O)NC(=O)/C(=C/c2cnc(SC)nc2)C1=O | 0.156%
86 | COc1ccccc1NC(=S)N1CCNC(=O)C1CC(=O)Nc1cccc(C)c1 (stereo not drawn) | -2.39%
87 | O=C(NC(C(=O)O)c1ccccc1)c1ccccc1 (stereo not drawn) | 13.9%
88 | CCOc1ccc(CNC(=O)C(CC)n2nc(C)n3c(cc4occc43)c2=O)cc1OC (stereo not drawn) | 3.66%
89 | CCn1ncc(C2=NOC(C(=O)NCC(C)C)C2)c1C (stereo not drawn) | 5.97%
90 | O=[N+]([O-])c1ccccc1-n1cnc2ccccc21 | 14.3%
91 | CCS(=O)(=O)N1Cc2ccccc2CC1C(=O)Nc1cccc(S(=O)(=O)N(C)C)c1 (stereo not drawn) | 16.1%
92 | COCCNc1cc(C)nc2c(-c3ccccc3OC)c(C)nn12 | 5.98%
93 | O=C(O)c1ccc(C(=O)c2ccc3c(c2)C(=O)N(CC2CCCO2)C3=O)cc1 (stereo not drawn) | 14.4%
